Test results from PubChem BioAssay AID504845 (National Center for Advancing Translational Sciences (NCATS), 2011).
Hit rate of the full screen: of about 390,000 compounds, about 150 (0.038%) were called active. Inconclusive means that the source gave no clear call. Such entries were picked first, then a sample of the others. The call rests on the fitted dose curve; in most records, active means well fitted inhibition curve with a large enough effect; inconclusive means small, poorly fitted or top-dose-only effect; inactive means no such curve, though single readings can be large or run the other way. Potencies beside an inconclusive call are fits to weak or partial responses and may not hold up. Some structures have more than one record in an assay (separate samples or runs), and their calls can disagree.

The compounds below were run against Regulator of G-protein signaling 4 (Homo sapiens) (UniProt P49798) (assay: Inhibitors of Regulator of G Protein Signaling (RGS) 4: qHTS). Conditions: Transcreener GDP fluorescence polarization, RGS4-accelerated GTP hydrolysis; series mostly up to 114 µM; activity change, negative = inhibition: at the top concentration.
Sequence of UniProt P49798 (P49798 whole entry, looked up): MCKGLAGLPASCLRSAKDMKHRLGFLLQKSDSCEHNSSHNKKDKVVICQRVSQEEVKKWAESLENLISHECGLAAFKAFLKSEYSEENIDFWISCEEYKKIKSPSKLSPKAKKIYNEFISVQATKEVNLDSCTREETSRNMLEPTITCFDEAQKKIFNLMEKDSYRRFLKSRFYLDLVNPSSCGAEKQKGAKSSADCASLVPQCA
Summary of the method: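 MLSMR compounds (23 nl, pin-transferred) preincubated 10 min at room temperature with a 500nM (2x) first reagent, then RGS4 at 900nM (2x) plus Transcreener GDP mix added; fluorescence polarization (620/688 nm) read before and after 90 min at 30 °C.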
Further: nearly all actives have a fitted effect of over 75% in size.
On the % scale 0 is the no-effect control and ±100 the full control effect; potency means the concentration at half of the fitted maximal effect; tags describe the fitted curve by direction and shape.

Structure (SMILES)	Potency	activity change, negative = inhibition
Nc1ncc(P(=S)(N2CCOCC2)N2CCOCC2)s1	inconclusive: 100 µM [inhibitor, partial curve, poor fit]	
O=C1NC(=O)N(Cc2ccc(F)cc2)C(=O)/C1=C/c1cccs1	inconclusive: 20 µM [inhibitor, full curve, poor fit]	
O=C1NS(=O)c2cc([N+](=O)[O-])cc([N+](=O)[O-])c21 (configuration not stated)	inconclusive: 79.4 µM [inhibitor, partial curve, poor fit]	
Cc1ccc2c(c1)=NC(=O)/C(=C/c1c(O)[nH]c(=O)[nH]c1=O)C=2	inconclusive: 39.8 µM [inhibitor, partial curve, poor fit]	
Cc1cccc(N2C(=O)NC(=O)/C(=C\c3cccn3-c3ccc(Cl)cc3)C2=O)c1	inconclusive: 50.1 µM [inhibitor, partial curve, poor fit]	
Nc1ccc2ccccc2c1	inconclusive: 44.7 µM [inhibitor, partial curve, poor fit]	
CC(C)[C@]1(O)[C@@H](OC(=O)c2ccc[nH]2)[C@@]2(O)[C@@]3(C)C[C@]4(O)O[C@@]5([C@H](O)[C@@H](C)CC[C@]35O)[C@@]2(O)C41C	inconclusive: 0.0752 µM [inhibitor, full curve, poor fit]	
Cn1cc(C(=O)Cc2ccccc2)c2ccccc21	inconclusive: 35.5 µM [inhibitor, partial curve, poor fit]	
COc1ccc(NC(=O)C2C3CCC(O3)C2C(=O)O)c(OC)c1 (configuration not stated)	inconclusive: 79.4 µM [inhibitor, single point]	
CN(CCOc1ccc(C=C2C(=O)NC(=O)NC2=O)cc1)c1ccccn1	inconclusive: 39.8 µM [inhibitor, partial curve, poor fit]	
O=C1NC(=O)C2(Cc3ccccc3N3CCCC32)C(=O)N1c1cccc(Cl)c1 (configuration not stated)		inactive: -21.6%
COc1cc(/C=C2\C(=O)NC(=O)N(c3ccc(C)cc3)C2=O)cc(OC)c1O	inconclusive: 50.1 µM [inhibitor, partial curve, poor fit]	
CC(=O)Nc1ccccc1C(=O)C(=O)Nc1cccc(C(=O)N2CCC3(CC2)OCCO3)c1	inconclusive: 79.4 µM [inhibitor, single point]	
COc1ccc2c(c1)/C(=C/c1cnc[nH]1)C(=O)N2	inconclusive: 37.7 µM [inhibitor, single point]	
Ic1ccccc1CNC1C2CCN(CC2)C1C(c1ccccc1)c1ccccc1 (configuration not stated)	inconclusive: 37.7 µM [inhibitor, single point]	
COc1cc(C(C#N)N2CCOCC2)ccc1O (configuration not stated)	inconclusive: 89.1 µM [inhibitor, single point]	
COc1ccc(OC)c(N2C(=O)NC(=O)/C(=C\c3ccc([N+](=O)[O-])s3)C2=O)c1	inconclusive: 20 µM [inhibitor, full curve, poor fit]	
O=C1NC(=O)N(CCc2ccc(F)cc2)C(=O)/C1=C/c1cccs1	inconclusive: 17.8 µM [inhibitor, full curve, poor fit]	
COCCCNC(=O)c1c(NC(=O)c2ccco2)n(Cc2ccccc2)c2nc3ccccc3nc12	inconclusive: 50.1 µM [inhibitor, partial curve, poor fit]	

Structure (SMILES)	Potency	activity change, negative = inhibition
COc1ccc2nc(NC(=O)c3nc(S(=O)(=O)Cc4cccc(C)c4)ncc3Cl)sc2c1	inconclusive: 31.6 µM [inhibitor, partial curve, poor fit]	
Oc1c(Cl)c(Cl)c(Cl)c(Cl)c1Cl	inconclusive: 56.2 µM [inhibitor, partial curve, poor fit]	
NCCc1c[nH]c2ccc(O)cc12	inconclusive: 4.74 µM [inhibitor, single point]	
CC(C)c1ccc(N2C(=O)CC(=O)NC2=O)cc1	inconclusive: 79.4 µM [inhibitor, single point]	
O=C1NC(=O)C(=Cc2ccccc2OCCOc2ccc([N+](=O)[O-])cc2)C(=O)N1	inconclusive: 50.1 µM [inhibitor, partial curve, poor fit]	
CCOC(=O)c1c(/N=C/C2C(=O)NC(=S)NC2=O)sc2c1CCC2	inconclusive: 79.4 µM [inhibitor, partial curve, poor fit]	
COc1ccc(/C=C2/C(=O)N(Cc3ccco3)C(=O)N(C(C)C)C2=O)cc1	inconclusive: 20 µM [inhibitor, full curve, poor fit]	
Cc1cc(/C=C2\C(=O)NC(=O)N(c3ccc(Cl)cc3)C2=O)c(C)n1C	inconclusive: 31.6 µM [inhibitor, full curve, poor fit]	
Cc1ccc(-c2nc3c(=O)n(C)c(=O)nc-3n(C)n2)cc1		inactive: -33.5%
OC12ONC(c3ccccn3)C1N1CCC2CC1 (configuration not stated)		inactive: -7.85%
CCN1CCN(Cc2ccc(C)cc2C)CC1		inactive: 7.75%
CCN(CC)CCCN=Cc1c(O)n(Cc2ccc(F)cc2)c(=O)[nH]c1=O		inactive: 3.16%
O=C(Nc1ccc(Cl)cc1)N1CC2CC(C1)c1cccc(=O)n1C2 (configuration not stated)	inconclusive: 100 µM [inhibitor, single point]	
O=C1C(=O)c2ccccc2-c2ccccc21	inconclusive: 20 µM [inhibitor, full curve, poor fit]	
CCCC(=O)Nc1ccc(N2CCN(CC)CC2)c(Cl)c1		inactive: 7.88% [at 11.4 µM]
CNCC[C@H](Oc1ccc(C(F)(F)F)cc1)c1ccccc1	inconclusive: 4.22 µM [inhibitor, partial curve, poor fit]	
Cc1ccc(S(=O)(=O)Oc2ccccc2C=C2C(=O)N(C)C(=O)N(C)C2=O)cc1	inconclusive: 35.5 µM [inhibitor, partial curve, poor fit]	
COc1cc([N+](=O)[O-])c2nc(C)ccc2c1[N+](=O)[O-]		inactive: -11.6%
Cc1c(C=C2C(=O)N(C)C(=S)N(C)C2=O)c2ccccc2n1CC(=O)NCC1CCCO1 (configuration not stated)	inconclusive: 79.4 µM [inhibitor, partial curve, poor fit]	

Structure (SMILES)	Potency	activity change, negative = inhibition
CN(C)c1ccc(C=C2C(=O)NC(=S)NC2=O)cc1	inconclusive: 35.5 µM [inhibitor, full curve, poor fit]	
CCCN1CCc2cc(O)cc3c2[C@H]1Cc1ccc(O)c(O)c1-3	active: 0.532 µM	
CC(=O)OC1CC(OC2C(O)CC(OC3C(O)CC(OC4CCC5(C)C(CCC6C5CC(O)C5(C)C(C7=CC(=O)OC7)CCC65O)C4)OC3C)OC2C)OC(C)C1OC1OC(CO)C(O)C(O)C1O (configuration not stated)		inactive: 26.2%
Cc1nc2c(=O)n(C)c(=O)nc-2n(C)n1	inconclusive: 79.4 µM [inhibitor, partial curve, poor fit]	
O=Cc1cn(Cc2ccc(Br)cc2)c2ccccc12	inconclusive: 89.1 µM [inhibitor, single point]	
Cc1cc(Cc2c(O)[nH]c(=S)[nH]c2=O)ccc1OC(C)C	inconclusive: 44.7 µM [inhibitor, partial curve, poor fit]	
O=C1NC(=S)NC(=O)C1Cc1ccccc1	inconclusive: 50.1 µM [inhibitor, partial curve, poor fit]	
C#CCOCCOCCOCCNc1nc(N2CCN(C(=O)CCCCCCCCCCNC(=O)[C@H]([C@@H](C)CC)n3cc(CCCCN=C(N)N)nn3)CC2)nc(N2CCN(C(=O)CCCCCCCCCCNC(=O)[C@H](CO)n3cc(CCCCCN)nn3)CC2)n1	inconclusive: 44.7 µM [inhibitor, partial curve, poor fit]	
C[n+]1c(-c2ccccc2)sc2ccccc21	inconclusive: 35.5 µM [inhibitor, partial curve, poor fit]	
Cc1ccc(N2C(=O)NC(=O)/C(=C\c3cnc(-c4ccccc4)nc3)C2=O)cc1	inconclusive: 28.2 µM [inhibitor, full curve, poor fit]	
C[C@]12C=CC(=O)C=C1CC[C@@H]1C2=CC[C@]2(C)[C@@H](C(=O)CN3CCN(c4cc(N5CCCC5)nc(N5CCCC5)n4)CC3)CC[C@@H]12	active: 10.6 µM	
CCOC(=O)COc1ccc(/C=C2\C(=O)NC(=S)N(c3ccc(OC)cc3)C2=O)cc1OC	inconclusive: 20 µM [inhibitor, full curve, poor fit]	
CN1C(=O)/C(=C/c2ccc(N3CCCCCC3)o2)C(=O)NC1=S	inconclusive: 79.4 µM [inhibitor, single point]	
CC/C(=N\Nc1cccc2ccccc12)c1c(O)[nH]c(=O)[nH]c1=O	inconclusive: 89.1 µM [inhibitor, partial curve, poor fit]	
CCOc1ccc(-n2c(=O)c3c4c(sc3n(CC(=O)NCc3ccco3)c2=O)CCC4)cc1	inconclusive: 56.2 µM [inhibitor, partial curve, poor fit]	
CCOc1ccc(N2C(=O)NC(=O)/C(=C/c3cnc(SC)nc3)C2=O)cc1	inconclusive: 50.1 µM [inhibitor, partial curve, poor fit]	
O=C1NC(=O)N(Cc2ccccc2)C(=O)C1Cc1ccccc1 (configuration not stated)	inconclusive: 79.4 µM [inhibitor, partial curve, poor fit]	
O=C1NC(=S)NC(=O)C1=Cc1c(Cl)cccc1Cl	inconclusive: 35.5 µM [inhibitor, full curve, poor fit]	
CC(C)C1C(=O)N2CCC[C@H]2[C@]2(O)O[C@](NC(=O)[C@@H]3C=C4c5cccc6[nH]cc(c56)C[C@H]4N(C)C3)(C(C)C)C(=O)N12 (some centres not stated)	inconclusive: 0.212 µM [inhibitor, full curve, poor fit]	
